In article PMC4742118 one finds binding data, which are given here for three molecules.

Sequences of proteins named here, by UniProt entry; tags and fusion partners are left off. Residues count along the entry.
UniProt Q9Z0J4: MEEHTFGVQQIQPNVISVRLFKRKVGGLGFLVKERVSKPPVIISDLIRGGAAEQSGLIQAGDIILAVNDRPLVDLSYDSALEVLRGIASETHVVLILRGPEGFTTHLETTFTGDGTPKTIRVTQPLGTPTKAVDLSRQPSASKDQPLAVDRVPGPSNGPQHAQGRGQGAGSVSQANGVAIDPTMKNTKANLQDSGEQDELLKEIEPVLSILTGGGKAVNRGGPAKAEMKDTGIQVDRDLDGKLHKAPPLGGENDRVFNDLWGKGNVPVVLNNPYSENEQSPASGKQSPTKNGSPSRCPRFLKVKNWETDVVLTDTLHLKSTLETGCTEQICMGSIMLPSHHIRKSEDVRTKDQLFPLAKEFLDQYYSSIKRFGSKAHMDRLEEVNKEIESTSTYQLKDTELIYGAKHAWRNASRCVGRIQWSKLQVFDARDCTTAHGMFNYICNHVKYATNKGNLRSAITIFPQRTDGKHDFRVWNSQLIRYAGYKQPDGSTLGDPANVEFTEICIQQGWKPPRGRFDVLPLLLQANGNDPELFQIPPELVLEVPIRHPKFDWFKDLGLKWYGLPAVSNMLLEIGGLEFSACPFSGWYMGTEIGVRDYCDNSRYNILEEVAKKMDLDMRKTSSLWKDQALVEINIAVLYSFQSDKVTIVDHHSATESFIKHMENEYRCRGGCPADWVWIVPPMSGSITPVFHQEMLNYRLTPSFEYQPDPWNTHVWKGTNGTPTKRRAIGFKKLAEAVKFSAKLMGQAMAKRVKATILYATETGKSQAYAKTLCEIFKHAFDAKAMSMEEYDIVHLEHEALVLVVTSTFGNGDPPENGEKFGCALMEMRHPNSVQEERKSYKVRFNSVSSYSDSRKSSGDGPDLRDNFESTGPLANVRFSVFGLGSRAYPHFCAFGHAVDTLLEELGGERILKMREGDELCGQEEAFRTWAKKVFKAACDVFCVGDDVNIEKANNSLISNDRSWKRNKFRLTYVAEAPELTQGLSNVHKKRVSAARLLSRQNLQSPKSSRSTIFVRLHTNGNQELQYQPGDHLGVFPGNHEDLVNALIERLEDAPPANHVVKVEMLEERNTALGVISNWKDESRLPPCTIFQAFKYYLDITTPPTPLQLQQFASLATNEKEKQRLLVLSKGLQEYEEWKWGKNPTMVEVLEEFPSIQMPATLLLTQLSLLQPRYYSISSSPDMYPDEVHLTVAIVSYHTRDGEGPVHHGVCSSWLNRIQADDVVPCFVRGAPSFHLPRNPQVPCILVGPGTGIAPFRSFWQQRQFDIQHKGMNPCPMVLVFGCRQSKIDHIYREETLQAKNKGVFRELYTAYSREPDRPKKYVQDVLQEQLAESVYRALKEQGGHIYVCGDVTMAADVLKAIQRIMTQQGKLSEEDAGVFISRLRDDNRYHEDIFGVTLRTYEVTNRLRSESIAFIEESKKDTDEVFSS
UniProt Q61616: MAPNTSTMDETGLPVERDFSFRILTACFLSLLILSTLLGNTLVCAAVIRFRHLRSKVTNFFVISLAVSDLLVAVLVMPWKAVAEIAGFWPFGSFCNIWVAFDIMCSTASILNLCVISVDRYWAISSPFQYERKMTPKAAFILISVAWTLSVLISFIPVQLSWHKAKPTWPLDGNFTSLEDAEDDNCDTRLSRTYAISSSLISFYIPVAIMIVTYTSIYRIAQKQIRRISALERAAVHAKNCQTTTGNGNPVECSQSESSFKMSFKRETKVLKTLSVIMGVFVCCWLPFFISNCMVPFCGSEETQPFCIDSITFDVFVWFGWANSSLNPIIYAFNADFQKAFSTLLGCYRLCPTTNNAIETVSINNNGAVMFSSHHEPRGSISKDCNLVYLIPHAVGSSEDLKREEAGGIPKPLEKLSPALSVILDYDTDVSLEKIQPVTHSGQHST
UniProt Q3UVX5, residues 19-1203: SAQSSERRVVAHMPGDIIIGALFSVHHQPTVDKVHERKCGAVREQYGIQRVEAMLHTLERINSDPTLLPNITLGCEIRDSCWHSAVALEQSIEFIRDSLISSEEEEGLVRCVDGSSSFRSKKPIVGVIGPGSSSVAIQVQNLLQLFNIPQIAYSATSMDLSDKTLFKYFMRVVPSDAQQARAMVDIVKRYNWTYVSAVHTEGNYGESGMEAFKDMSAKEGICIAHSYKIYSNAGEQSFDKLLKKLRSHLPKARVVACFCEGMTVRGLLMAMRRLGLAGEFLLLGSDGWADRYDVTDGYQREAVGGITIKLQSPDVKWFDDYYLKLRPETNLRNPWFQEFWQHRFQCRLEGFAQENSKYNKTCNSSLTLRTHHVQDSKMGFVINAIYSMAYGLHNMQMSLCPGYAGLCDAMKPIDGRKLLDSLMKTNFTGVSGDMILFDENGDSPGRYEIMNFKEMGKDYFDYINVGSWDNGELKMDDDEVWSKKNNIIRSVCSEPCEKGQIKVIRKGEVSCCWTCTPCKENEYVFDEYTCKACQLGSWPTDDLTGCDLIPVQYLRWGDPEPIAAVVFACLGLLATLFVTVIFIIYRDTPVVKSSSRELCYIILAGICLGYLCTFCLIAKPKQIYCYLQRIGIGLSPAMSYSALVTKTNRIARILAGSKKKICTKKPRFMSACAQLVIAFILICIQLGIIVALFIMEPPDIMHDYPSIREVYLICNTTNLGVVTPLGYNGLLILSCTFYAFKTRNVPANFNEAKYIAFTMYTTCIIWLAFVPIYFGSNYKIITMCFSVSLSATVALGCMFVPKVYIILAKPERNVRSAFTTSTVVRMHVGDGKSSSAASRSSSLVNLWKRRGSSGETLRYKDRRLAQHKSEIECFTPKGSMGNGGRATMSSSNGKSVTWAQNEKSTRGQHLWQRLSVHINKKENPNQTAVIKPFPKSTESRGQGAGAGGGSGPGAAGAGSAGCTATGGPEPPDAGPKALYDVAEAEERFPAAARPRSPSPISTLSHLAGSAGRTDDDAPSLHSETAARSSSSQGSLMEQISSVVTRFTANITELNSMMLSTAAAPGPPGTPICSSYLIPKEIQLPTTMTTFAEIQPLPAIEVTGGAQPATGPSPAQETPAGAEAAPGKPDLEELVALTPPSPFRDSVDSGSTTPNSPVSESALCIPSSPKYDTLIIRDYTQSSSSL
UniProt Q64264: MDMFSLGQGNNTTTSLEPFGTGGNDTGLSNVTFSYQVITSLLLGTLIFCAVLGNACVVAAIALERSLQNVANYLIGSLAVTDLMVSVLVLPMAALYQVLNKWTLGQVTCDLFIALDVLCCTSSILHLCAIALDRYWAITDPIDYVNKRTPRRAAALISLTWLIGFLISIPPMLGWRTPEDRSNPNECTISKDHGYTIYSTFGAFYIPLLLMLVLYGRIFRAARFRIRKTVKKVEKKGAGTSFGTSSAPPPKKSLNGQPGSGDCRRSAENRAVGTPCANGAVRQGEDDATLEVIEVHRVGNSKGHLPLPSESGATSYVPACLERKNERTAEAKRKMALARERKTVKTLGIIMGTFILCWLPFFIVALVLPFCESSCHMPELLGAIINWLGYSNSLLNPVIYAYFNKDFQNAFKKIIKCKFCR
UniProt Q14BI2, residues 19-872: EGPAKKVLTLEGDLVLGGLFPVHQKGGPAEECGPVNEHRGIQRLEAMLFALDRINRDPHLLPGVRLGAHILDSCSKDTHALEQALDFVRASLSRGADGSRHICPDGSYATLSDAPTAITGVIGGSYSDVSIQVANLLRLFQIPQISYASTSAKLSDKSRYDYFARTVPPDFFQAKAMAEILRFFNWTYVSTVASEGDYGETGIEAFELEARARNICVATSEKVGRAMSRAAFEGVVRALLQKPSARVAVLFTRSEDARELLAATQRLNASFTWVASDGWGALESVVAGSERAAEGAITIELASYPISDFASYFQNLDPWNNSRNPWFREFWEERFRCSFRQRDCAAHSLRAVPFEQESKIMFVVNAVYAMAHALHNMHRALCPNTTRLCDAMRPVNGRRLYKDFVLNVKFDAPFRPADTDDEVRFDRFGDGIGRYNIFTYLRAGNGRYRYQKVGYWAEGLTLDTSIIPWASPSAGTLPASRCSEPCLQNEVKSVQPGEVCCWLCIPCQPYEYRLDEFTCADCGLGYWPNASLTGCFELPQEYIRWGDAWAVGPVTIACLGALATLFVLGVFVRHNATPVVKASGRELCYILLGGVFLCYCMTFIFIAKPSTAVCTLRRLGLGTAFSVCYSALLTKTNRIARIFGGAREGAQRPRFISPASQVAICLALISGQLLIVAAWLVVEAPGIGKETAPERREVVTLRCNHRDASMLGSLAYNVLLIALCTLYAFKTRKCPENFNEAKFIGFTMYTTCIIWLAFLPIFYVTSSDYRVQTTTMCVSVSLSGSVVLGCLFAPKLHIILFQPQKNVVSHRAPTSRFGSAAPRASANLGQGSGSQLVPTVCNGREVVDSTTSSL
UniProt P42866: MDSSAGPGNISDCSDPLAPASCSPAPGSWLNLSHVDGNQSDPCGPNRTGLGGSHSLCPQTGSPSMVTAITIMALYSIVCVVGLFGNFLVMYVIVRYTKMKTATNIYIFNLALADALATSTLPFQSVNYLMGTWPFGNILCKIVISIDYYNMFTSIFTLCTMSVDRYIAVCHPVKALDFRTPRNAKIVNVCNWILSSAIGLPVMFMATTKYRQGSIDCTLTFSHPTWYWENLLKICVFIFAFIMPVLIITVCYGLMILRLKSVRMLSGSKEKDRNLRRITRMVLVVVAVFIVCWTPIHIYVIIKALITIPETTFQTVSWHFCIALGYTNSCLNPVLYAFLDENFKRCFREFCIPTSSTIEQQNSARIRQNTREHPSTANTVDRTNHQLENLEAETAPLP
UniProt P47746: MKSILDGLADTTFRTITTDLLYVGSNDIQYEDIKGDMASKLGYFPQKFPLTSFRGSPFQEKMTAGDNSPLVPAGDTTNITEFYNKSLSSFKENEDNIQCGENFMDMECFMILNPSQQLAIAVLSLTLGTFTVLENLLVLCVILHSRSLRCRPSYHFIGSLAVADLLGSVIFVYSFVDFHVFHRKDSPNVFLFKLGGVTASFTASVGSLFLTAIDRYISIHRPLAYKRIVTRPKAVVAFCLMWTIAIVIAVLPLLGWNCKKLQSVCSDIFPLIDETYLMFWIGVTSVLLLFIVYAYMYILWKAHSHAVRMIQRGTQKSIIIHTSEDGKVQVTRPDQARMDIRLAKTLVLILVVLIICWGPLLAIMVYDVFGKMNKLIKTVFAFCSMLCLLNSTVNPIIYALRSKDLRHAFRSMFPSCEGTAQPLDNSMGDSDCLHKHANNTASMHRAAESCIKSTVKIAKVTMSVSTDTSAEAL
UniProt P61168: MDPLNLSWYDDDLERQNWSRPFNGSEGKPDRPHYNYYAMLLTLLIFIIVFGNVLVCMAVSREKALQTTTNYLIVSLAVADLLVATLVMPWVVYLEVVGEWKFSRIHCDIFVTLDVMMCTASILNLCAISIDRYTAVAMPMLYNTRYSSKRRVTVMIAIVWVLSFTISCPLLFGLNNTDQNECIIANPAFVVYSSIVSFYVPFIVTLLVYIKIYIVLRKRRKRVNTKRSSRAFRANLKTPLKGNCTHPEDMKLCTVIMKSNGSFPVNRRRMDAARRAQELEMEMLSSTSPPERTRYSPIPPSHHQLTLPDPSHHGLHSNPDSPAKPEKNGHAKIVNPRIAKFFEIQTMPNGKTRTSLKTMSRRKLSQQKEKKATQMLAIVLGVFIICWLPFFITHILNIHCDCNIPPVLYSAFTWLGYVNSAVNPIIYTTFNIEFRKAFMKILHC
UniProt P35363: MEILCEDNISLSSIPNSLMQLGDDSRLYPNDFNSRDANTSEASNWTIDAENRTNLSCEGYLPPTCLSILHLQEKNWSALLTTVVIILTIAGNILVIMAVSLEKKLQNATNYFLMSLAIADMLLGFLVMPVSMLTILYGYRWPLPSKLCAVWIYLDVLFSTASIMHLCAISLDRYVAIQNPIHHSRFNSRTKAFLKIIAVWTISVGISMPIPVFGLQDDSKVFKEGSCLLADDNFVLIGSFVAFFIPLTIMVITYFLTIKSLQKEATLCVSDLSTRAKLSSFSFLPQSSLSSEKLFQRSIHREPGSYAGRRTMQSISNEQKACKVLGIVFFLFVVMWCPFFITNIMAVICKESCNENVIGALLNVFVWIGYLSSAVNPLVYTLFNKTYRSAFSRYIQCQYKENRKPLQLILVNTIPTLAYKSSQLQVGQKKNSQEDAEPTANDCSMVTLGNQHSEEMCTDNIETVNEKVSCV

Assay [1] concerns the target neural nitric oxide synthase (nNOS), full length murine, BiFC fusion (murine) (UniProt Q9Z0J4). As to the kind of experiment: split reporter; BiFC in living CHO cells transiently co-transfected with the pair of full-length proteins in the VN173 and VC155 plasmids (0.3 ug); confocal fluorescence 24 h later.
Assay [2] addresses dopamine D1 receptor, full length murine, BiFC fusion (murine) (UniProt Q61616). Described as above.
Assay [3] addresses metabotropic glutamate 5 receptor, full length murine, BiFC fusion (murine) (UniProt Q3UVX5). Described as above.
Assay [4] addresses NMDAR NR1 C0-C1-C2 subunit, full length murine, BiFC fusion (murine) (UniProt P35438). The description is as above.
The target in assay [5] is serotonin 1A receptor, full length murine, BiFC fusion (murine) (UniProt Q64264). The assay is described as above.
The target of assay [6] is metabotropic glutamate 2 receptor, full length murine, BiFC fusion (murine) (UniProt Q14BI2). The assay is described as above.
Assay [7] concerns the target mu-opioid receptor (MOR), full length murine, BiFC fusion (murine) (UniProt P42866). Described as above.
Assay [8] has as its target cannabinoid CB1 receptor, full length murine, BiFC fusion (murine) (UniProt P47746). Described as above.
Assay [9] addresses dopamine D2 receptor, full length murine, BiFC fusion (murine) (UniProt P61168). The description is as above.
The target of assay [10] is serotonin 2A receptor, full length murine, BiFC fusion (murine) (UniProt P35363). Described as above.
Assay [11] concerns the target mu-opioid receptor (MOR), endogenous in mouse brain (mouse (endogenous in mouse brain synaptosomes)) (UniProt P42866). Put plainly: co-IP; as a8, membranes from σ1R-/- mice; IP of MOR or NR1; Western blot.
The target of assay [12] is NMDAR NR1 subunit, endogenous in mouse brain (mouse (endogenous in mouse brain synaptosomes)) (UniProt P35438). Put plainly: co-IP; solubilised synaptosomal membranes of mouse brain (PAG); MOR, CB1 or NR1 precipitated with biotinylated IgG against extracellular domains; Western blot; wild-type and control mice, also after icv morphine, BD1047 with morphine, MK801, or CCI surgery. On the technique in general: Immunoblotting shows a protein as a band on a membrane.

The target in assay [13] is cannabinoid CB1 receptor, endogenous in mouse brain (mouse (endogenous in mouse brain synaptosomes)) (UniProt P47746). The description is as above.
Assay [14] deals with mu-opioid receptor (MOR), endogenous in mouse brain (mouse (endogenous in mouse brain synaptosomes)) (UniProt P42866). The assay is described as above.
Assay [15] addresses NMDAR NR1 subunit, endogenous in mouse brain (mouse (endogenous in mouse brain synaptosomes)) (UniProt P35438). As to the kind of experiment: condition: only membranes heated at 100 °C for 10 min in 1% SDS before the immunoprecipitation; co-IP; selectivity control: synaptosomal membranes heated at 100 °C for 10 min in 40 mM Tris-HCl, 1% SDS, cooled, octylthioglucoside added to 0.65%, then immunoprecipitation.

Assay [16] has as its target cannabinoid CB1 receptor, endogenous in mouse brain (mouse (endogenous in mouse brain synaptosomes)) (UniProt P47746). The description is as above.
Assay [17] addresses mu-opioid receptor (MOR), endogenous in mouse brain (mouse (endogenous in mouse brain synaptosomes)) (UniProt P42866). Described as above.

No constants are given. Whether binding was seen depends on the method and setting. In cells and extracts the contact can be indirect. Some entries that bind do so weakly or less than the wild type. For some assays here: Tags and fused reporters may be left off the sequences shown.

B1: regulator of G protein signaling of the Rz subfamily, RGSZ2, full length murine, BiFC fusion (protein, UniProt Q9QZB0 1-210)
chain: MRKRQQSQNEGTQAVSQAPGNQRPNNTCCFCWCCCCSCSCLTVRNEERGDSSGRSPHTTKMESIQVLEECQNPTADEVLSWSQNFDKMMKTPAGRNLFREFLRTEYSEENLLFWLACEDLKKEQNKKAVEEKARMIYEDYISILSPKEVSLDSRVREVINRSLLDPSPHMYEDAQLQIYTLMHRDSFPRFLNSQIYKAFVESTTSCTSES
As for B1, in [1], the binding result was “binds”.

B2: histidine triad nucleotide-binding protein 1 (HINT1), full length murine, BiFC fusion (protein, UniProt P70349 1-126)
chain: MADEIAKAQVAQPGGDTIFGKIIRKEIPAKIIFEDDRCLAFHDISPQAPTHFLVIPKKHISQISVADDDDESLLGHLMIVGKKCAADLGLKRGYRMVVNEGADGGQSVYHIHLHVLGGRQMNWPPG
For the molecule B2, the binding entry in [2], in assay [3], in assay [4], in assay [5], in [6] and in assay [7] was “binds” each time. Also, the binding result in [8], in assay [9] and in [10] was “binds” throughout.

B3: HINT1 protein, endogenous in mouse brain (protein, UniProt P70349 1-126)
chain: MADEIAKAQVAQPGGDTIFGKIIRKEIPAKIIFEDDRCLAFHDISPQAPTHFLVIPKKHISQISVADDDDESLLGHLMIVGKKCAADLGLKRGYRMVVNEGADGGQSVYHIHLHVLGGRQMNWPPG
As for B3, the binding entry was “binds weakly” in assay [11]; “binds” in assay [12]; “binds” in [13]; “binds” in assay [14]; “no binding” in assay [15]; “no binding” in assay [16]. The binding entry in assay [17] was “no binding”.
